The supplement of paper PMC4466236
The full ranking holds about 33,000 sequences; the median of “E-score (dimensionless, -0.5 to 0.5)” is about -0.058, and the highest 2% start at about 0.35. Some of the results follow.

The sequences below were run on MvaT (assay: PBM 8-mer E-score (mean of HK and ME arrays) (E-score (dimensionless, -0.5 to 0.5)); higher = stronger relative binding preference; most listed sequences are background and not binding sites).
Summary of the method: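 Full-length P. aeruginosa MvaT carrying an N-terminal glutathione S-transferase tag was tested by protein binding microarray following a previously described protocol. Two universal double-stranded 60-mer arrays, ME and HK, were used, each with a constant 25-mer primer region and a variable 35-mer region covering all 8-mers. The rank-based E-score is the mean of the two arrays, parsed with a custom script. Its range runs from -0.5 to 0.5 for each 8-mer.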

| Sequence | PBM 8-mer E-score |
| --- | --- |
| AGTGATGA | 0.0836 |
| CGATATCC | -0.116 |
| AATGAGCG | -0.154 |
| GCTTAAAA | 0.242 |
| CATTTCCA | 0.146 |
| ATACTGCC | 0.0135 |
| AATTGGTG | 0.0491 |
| GCGTCCAC | -0.233 |
| ACGGCGTC | -0.362 |
| CGTATAAC | 0.113 |
| GTCAGGAA | 0.000934 |
| CAGTGTCC | -0.176 |
| CCACCTTA | 0.0795 |
| ATAGCTTG | 0.0257 |
| ACGCTGAT | 0.00581 |
| AACCGGCT | -0.148 |
| GTAAAATA | 0.345 |
| TCGAAAGA | 0.00721 |
| CCCAATGA | -0.117 |
| AAGGTGCT | -0.249 |
| CTAAGCAC | -0.0271 |
| GACTAGGC | -0.202 |
| ACGCGTAG | -0.103 |
| CATCACGG | -0.174 |
| CTCCATCC | -0.207 |

| Sequence | PBM 8-mer E-score |
| --- | --- |
| GGTATGGA | -0.235 |
| AACAACCA | -0.0408 |
| AACTGACC | -0.0356 |
| CGATGTAA | 0.0178 |
| GGATCTAC | -0.223 |
| ATACAAGA | 0.18 |
| AATGCGAC | -0.0226 |
| CACGGGAC | -0.284 |
| GCCCAAGC | -0.3 |
| AAAACTTG | 0.1 |
| GCAGCCGC | -0.189 |
| CTAAATTA | 0.336 |
| AGTAGCGC | -0.0583 |
| GCTTGGAC | -0.25 |
| GGTCGCCA | -0.174 |
| TAGAATCA | 0.0466 |
| ACTAGTGA | 0.0222 |
| ATTAACCC | 0.18 |
| CCATCCTA | -0.256 |
| CGGGCCAC | -0.225 |
| CCCATGTC | -0.158 |
| CTCCCTTA | -0.0814 |
| AAACTCTG | 0.0986 |
| CGGGCACC | -0.301 |
| AAAAGTTC | 0.277 |

| Sequence | PBM 8-mer E-score |
| --- | --- |
| ATTTTCTA | 0.255 |
| GGTACCAA | -0.0846 |
| ATGACCGA | -0.0443 |
| CTACCCGA | -0.0766 |
| AGAGGCGG | -0.277 |
| TAGTGAAA | 0.125 |
| CGTACTAG | -0.108 |
| GGACCTTA | -0.19 |
| CCCTAGGC | -0.156 |
| AACTGATA | 0.267 |
| CTGCAACC | -0.105 |
| CATTTGAA | 0.125 |
| CTCTCCGC | -0.188 |
| GTACTTTA | 0.342 |
| CCCAGCCG | -0.12 |
| CACTGTCC | -0.0749 |
| GCCGAGCC | -0.217 |
| ACACTCGA | -0.0421 |
| GTTAGTTA | 0.302 |
| AATAGATG | 0.172 |
| CGTGCTGC | -0.174 |
| AGTGAGAT | -0.00921 |
| AATTGATC | 0.241 |
| AGTCCCCG | -0.246 |
| GCCCACTA | -0.131 |

| Sequence | PBM 8-mer E-score |
| --- | --- |
| AGCCTATA | 0.179 |
| CCGCTGGC | -0.215 |
| GAAACACC | 0.0519 |
| CATAAGGG | -0.214 |
| AGAGCACT | -0.171 |
| CGGGTATA | 0.0683 |
| AGGGTCGG | -0.241 |
| CGCAAGTC | -0.135 |
| AGTGTATC | 0.102 |
| CCCTTGCG | -0.299 |
| ATGCGTAA | 0.108 |
| TATACCCA | 0.157 |
| CGTCGGAC | -0.179 |
| AAGCGACC | -0.0307 |
| TACAGGGA | -0.0432 |
| GGAGGACA | -0.279 |
| ATGCTTCA | -0.1 |
| AATGGCAT | 0.117 |
| AATACTGA | 0.251 |
| AACGACCA | -0.102 |
| GGGGGCTA | -0.25 |
| AGAACTGG | -0.194 |
| GGACCAGA | -0.128 |
| ACTTTCTA | 0.246 |
| GAAACAAC | 0.136 |

| Sequence | PBM 8-mer E-score |
| --- | --- |
| CGAGCTGC | -0.186 |
| TAAGACCA | 0.0406 |
| ACATACGG | 0.019 |
| CTCCACCA | -0.177 |
| GGTCTAAA | 0.021 |
| AAAAGGGC | -0.112 |
| AGGTAGAA | 0.0321 |
| GCACGGAA | -0.0471 |
| GCGCATCA | -0.069 |
| CGAGTTGA | -0.0135 |
| AGCTGCTC | -0.175 |
| AAAGGTGC | -0.199 |
| GGGACTAA | -0.0374 |
| CACGCAAA | -0.0756 |
| AATTTCCA | 0.219 |
| GGTAGGCA | -0.167 |
| CAGCTTAC | -0.0618 |
| ATCGTACC | -0.17 |
| AAGTCCAA | 0.119 |
| TAAAGGTA | 0.156 |
| CACTAAAG | 0.099 |
| CTTTGATC | -0.016 |
| ATACCTCA | 0.0702 |
| ATTACAAC | 0.338 |
| AAGACAAA | 0.253 |

| Sequence | PBM 8-mer E-score |
| --- | --- |
| CAGCGGAC | -0.0569 |
| ACTTCCTC | -0.0365 |
| CAGCCCTG | -0.254 |
| CTGGATTC | -0.0735 |
| CGTTCCGC | -0.191 |
| AGCTGCCA | -0.16 |
| CAAACTAC | 0.248 |
| GCTCCCAC | -0.306 |
| ATTTTCAA | 0.175 |
| ACATAGAA | 0.0632 |
| CCCACTTA | 0.0114 |
| CGCAACAG | -0.0736 |
| CCAGATCG | -0.179 |
| AGTACACA | -0.0147 |
| GCTTTCGA | -0.0458 |
| CACCTAAC | -0.0532 |
| CTGGTTTA | 0.21 |
| TCTCGACA | 0.0103 |
| ATTGTTTC | 0.279 |
| ATGTCAGG | -0.0804 |
| CCCGAGGA | -0.335 |
| CAACTGTA | 0.0199 |
| CCACTTCG | -0.164 |
| AGAGAAAG | -0.0588 |
| AACAGCTG | -0.208 |

| Sequence | PBM 8-mer E-score |
| --- | --- |
| AACTGCAC | 0.132 |
| GCTGAAGA | -0.139 |
| CGACGCAG | -0.275 |
| TCCCGTAA | -0.0191 |
| ATTTGCTC | 0.0823 |
| AGATTGTG | 0.0417 |
| CAGCTACC | -0.311 |
| CAATCCGG | -0.16 |
| ATTGCTCA | 0.0587 |
| AAGGAGCC | -0.312 |
| AAACTTTC | 0.312 |
| AGGGGCGC | -0.251 |
| ACAGGCGT | -0.178 |
| ATCTTTAA | 0.275 |
| ACTTATAT | 0.424 |
| CGGTGTTC | -0.144 |
| AGGAGGAG | -0.283 |
| CTTTGATA | 0.0367 |
| CAAAGCAG | -0.000532 |
| CCATGCTC | -0.185 |
| CAAAAGAA | 0.0186 |
| CTCTGTGC | -0.109 |
| CAAGATTA | 0.204 |
| CTTGTCTC | -0.131 |
